{
  "sequences": {"note": "Chains of the proteins cited; added tags and fusions are not shown.", "UniProt Q01371": "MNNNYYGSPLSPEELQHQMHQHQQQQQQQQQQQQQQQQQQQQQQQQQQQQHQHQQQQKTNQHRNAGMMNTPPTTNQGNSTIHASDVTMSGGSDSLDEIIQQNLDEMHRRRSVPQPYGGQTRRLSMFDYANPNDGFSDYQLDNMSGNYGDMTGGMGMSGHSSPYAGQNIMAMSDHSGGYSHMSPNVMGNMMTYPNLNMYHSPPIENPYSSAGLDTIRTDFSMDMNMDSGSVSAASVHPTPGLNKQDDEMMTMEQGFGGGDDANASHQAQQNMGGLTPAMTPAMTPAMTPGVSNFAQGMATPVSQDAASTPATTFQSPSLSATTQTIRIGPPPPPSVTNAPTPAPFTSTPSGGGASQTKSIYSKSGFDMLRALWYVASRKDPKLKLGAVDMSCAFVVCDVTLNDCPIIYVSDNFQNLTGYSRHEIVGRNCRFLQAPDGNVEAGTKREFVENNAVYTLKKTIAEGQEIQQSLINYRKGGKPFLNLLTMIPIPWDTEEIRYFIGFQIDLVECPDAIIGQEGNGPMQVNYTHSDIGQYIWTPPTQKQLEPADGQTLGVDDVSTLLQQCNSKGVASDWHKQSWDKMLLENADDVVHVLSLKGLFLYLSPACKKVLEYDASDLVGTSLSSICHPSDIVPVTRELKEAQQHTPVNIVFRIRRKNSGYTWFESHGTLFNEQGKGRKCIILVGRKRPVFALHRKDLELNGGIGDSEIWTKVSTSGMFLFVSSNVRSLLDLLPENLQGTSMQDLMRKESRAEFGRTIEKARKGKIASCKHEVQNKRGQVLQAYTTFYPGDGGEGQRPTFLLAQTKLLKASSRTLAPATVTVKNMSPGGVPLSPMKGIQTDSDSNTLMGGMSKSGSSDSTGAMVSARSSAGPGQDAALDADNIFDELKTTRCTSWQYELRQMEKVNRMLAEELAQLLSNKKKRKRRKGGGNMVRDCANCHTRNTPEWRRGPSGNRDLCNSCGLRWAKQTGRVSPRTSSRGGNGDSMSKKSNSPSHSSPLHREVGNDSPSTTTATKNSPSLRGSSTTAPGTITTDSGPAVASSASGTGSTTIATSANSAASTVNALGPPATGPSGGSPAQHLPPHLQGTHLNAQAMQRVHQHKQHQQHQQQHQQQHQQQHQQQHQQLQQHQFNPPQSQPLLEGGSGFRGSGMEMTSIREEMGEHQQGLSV"},
  "source": "paper PMC10320511",
  "key": {"[1]": {"biological_target": "T1, FRQ Δ647–690, V5H6-tagged (Neurospora crassa) (UniProt P19970)", "T1 sequence": "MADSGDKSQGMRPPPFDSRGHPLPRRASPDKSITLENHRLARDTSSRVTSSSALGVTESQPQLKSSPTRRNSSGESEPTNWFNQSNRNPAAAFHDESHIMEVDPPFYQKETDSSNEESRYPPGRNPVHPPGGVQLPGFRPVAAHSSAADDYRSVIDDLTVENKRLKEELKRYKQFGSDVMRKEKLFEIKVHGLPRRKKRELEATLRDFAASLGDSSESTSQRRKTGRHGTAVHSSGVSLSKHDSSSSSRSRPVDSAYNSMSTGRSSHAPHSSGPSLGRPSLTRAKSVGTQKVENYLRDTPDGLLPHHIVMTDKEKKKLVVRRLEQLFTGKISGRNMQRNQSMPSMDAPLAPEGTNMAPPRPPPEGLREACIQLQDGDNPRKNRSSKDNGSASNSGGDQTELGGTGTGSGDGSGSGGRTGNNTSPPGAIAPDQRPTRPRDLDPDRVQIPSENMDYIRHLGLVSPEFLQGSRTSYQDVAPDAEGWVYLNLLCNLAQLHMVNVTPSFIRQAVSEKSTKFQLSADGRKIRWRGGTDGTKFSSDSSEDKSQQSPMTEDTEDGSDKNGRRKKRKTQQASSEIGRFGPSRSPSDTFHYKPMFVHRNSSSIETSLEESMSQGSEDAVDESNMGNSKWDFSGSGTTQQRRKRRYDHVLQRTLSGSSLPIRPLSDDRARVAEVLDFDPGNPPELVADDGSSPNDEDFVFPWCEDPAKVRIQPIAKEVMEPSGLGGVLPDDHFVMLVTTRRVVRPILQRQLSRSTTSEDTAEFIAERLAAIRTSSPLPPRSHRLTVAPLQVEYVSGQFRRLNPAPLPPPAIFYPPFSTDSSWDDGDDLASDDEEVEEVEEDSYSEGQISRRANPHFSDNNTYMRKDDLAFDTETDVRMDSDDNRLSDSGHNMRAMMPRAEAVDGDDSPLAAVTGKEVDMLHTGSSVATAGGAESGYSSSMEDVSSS", "assay": "co-IP; V5H6-tagged FRQ (wild type or mutant) pulled down with V5 agarose from Neurospora lysate (cultures in the light, 25 °C); 50 mM Hepes pH 7.4, 137 mM NaCl, 10% glycerol, 0.4% NP-40; 4 °C, 2 h; Western blot with FRQ, FRH, WC-1 and WC-2 antibodies"}, "[2]": {"biological_target": "T2, FRQ Δ194–199, V5H6-tagged (Neurospora crassa) (UniProt P19970)", "T2 sequence": "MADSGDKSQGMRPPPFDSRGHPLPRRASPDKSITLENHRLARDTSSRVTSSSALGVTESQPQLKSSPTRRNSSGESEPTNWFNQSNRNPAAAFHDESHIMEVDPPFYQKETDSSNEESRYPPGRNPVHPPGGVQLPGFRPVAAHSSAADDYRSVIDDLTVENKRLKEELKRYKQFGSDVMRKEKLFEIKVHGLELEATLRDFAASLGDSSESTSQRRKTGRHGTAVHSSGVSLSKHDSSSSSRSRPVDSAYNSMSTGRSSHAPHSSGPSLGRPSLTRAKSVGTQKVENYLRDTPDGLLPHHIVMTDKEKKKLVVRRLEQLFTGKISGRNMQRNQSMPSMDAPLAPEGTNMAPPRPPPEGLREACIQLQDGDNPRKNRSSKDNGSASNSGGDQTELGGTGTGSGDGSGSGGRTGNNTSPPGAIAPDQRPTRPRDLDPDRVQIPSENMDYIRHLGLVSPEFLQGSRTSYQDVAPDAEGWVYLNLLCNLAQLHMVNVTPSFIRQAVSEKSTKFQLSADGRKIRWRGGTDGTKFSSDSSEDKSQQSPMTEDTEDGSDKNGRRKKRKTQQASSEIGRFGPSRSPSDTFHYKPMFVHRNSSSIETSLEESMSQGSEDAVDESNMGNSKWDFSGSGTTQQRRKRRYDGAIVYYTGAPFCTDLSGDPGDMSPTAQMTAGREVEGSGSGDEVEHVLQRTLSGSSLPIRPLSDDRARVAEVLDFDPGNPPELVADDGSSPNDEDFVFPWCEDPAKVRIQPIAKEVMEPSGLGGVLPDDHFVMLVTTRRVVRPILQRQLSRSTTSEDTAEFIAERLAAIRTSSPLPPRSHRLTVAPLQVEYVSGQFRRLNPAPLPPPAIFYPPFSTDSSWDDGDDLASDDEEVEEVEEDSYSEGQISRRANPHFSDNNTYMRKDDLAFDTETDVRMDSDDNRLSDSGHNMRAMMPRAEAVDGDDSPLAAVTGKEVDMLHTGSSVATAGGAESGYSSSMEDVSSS", "assay": "co-IP; V5H6-tagged FRQ (wild type or mutant) pulled down with V5 agarose from Neurospora lysate (cultures in the light, 25 °C); 50 mM Hepes pH 7.4, 137 mM NaCl, 10% glycerol, 0.4% NP-40; 4 °C, 2 h; Western blot with FRQ, FRH, WC-1 and WC-2 antibodies"}},
  "note": "Results are given in words; binding and its absence hold for the method and conditions named. Binding seen in cells or lysates may run through a third protein. Sequences can lack the tags named with a protein.",
  "data": [
    {"substance": "White Collar-1 (WC-1) (from UniProt Q01371 1-1167)", "values": [
      {"measurement": "binding", "setting": "[1]", "value": "no binding"},
      {"measurement": "binding", "setting": "[2]", "value": "no binding"}
    ]}
  ]
}
